# The whole screen tested about 280,000 compounds, of which about 100 (0.036%) were called active. Inconclusive means that the source gave no clear call. Such entries were picked first, then a sample of the others. The call rests on the fitted dose curve; in most records, active means well fitted inhibition curve with a large enough effect in the signal ratio, with a control signal flat (not every such curve was filed as active); inconclusive means small, poorly fitted or top-dose-only effect, or effect the other way, or a change in a side signal; inactive means no such curve, though single readings can be large or run the other way; the % refers to the signal ratio. Where the call is inconclusive, the potency comes from a doubtful curve fit. A note “side channel” means that the fit belongs to a control or component signal, not to the main read-out.
# Biological target: Muscleblind-like protein 1 (Homo sapiens) (UniProt Q9NR56)
# Test: qHTS Assay for Inhibitors of MBNL1-poly(CUG) RNA binding
# Details: TR-FRET MBNL1-His/biotin-(CUG)12 binding, 665/545 ratio; series mostly up to 57.5 µM
# Outline: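 TR-FRET readout: Ex 340 nm, 665/545 nm emission ratio, normalized to buffer-only (basal) and MBNL1-(CUG)12 controls. Complex of MBNL1-His with Biotin-(CUG)12, compounds 92 nM–58 uM, incubated 60 min at room temperature.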
# Potency means the concentration at half of the fitted maximal effect; tags describe the fitted curve by direction and shape or compound fluorescence and quenching.
# UniProt Q9NR56, sequence (Q9NR56 whole entry, looked up): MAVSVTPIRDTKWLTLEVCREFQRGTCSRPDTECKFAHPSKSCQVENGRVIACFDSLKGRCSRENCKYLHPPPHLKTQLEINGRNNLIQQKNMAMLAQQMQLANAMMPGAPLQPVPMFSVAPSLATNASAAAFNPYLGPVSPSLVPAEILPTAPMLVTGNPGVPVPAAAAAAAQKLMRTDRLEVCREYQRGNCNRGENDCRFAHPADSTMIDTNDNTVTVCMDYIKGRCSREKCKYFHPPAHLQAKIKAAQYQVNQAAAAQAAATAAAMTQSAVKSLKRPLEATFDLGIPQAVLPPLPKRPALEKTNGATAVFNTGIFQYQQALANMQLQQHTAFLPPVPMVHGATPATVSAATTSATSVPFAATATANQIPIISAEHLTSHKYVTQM
row,SMILES,Potency
1,COC(=O)c1cc2c(=O)c3ccccc3oc2nc1/C=C/N(C)C,"inconclusive: 15.8 µM [quencher, side channel, partial curve]"
2,O=C(Nc1ccccc1SCC1CSc2nc3ccccc3c(=O)n21)c1ccccc1 (centres undefined),"inconclusive: 4.47 µM [quencher, side channel, single point]"
3,CC1CCc2c(C(=O)N3CCN(S(=O)(=O)c4cccs4)CC3)csc2C1 (centres undefined),"inconclusive: 39.8 µM [fluorescent, side channel, partial curve]"
4,O=C(c1ccccc1)N1N=C(c2ccccc2O)CC1c1ccc(Br)cc1 (centres undefined),inactive
5,CCC(C)/C(C)=N/Nc1ccc(S(N)(=O)=O)cc1[N+](=O)[O-] (centres undefined),"inconclusive: 11.2 µM [quencher, side channel, partial curve]"
6,Cc1sc2ncnc(N/N=C/c3ccc(O)cc3)c2c1C,"inconclusive: 28.2 µM [quencher, side channel, single point]"
7,COc1cccc(C(=O)/C=C/Nc2cccc(O)c2)c1,"inconclusive: 22.4 µM [quencher, side channel, partial curve]"
8,CCOc1ccc(NC(=O)/C(C#N)=C/c2cn(CC(=O)O)c3ccccc23)cc1,"inconclusive: 17.8 µM [quencher, side channel, partial curve]"
9,CC(=C/c1ccccc1)/C=N/NC(=O)c1ccccn1,"inconclusive: 15.8 µM [quencher, side channel, partial curve]"
10,N/C(=N\OCc1ccc([N+](=O)[O-])cc1)c1ccccn1,"inconclusive: 14.1 µM [quencher, partial curve]"
11,O=C(Nc1cc([N+](=O)[O-])ccc1F)c1cccs1,"inconclusive: 11.2 µM [quencher, side channel, partial curve]"
12,Cc1ccc(-c2nc3ccccc3s2)cc1NC(=S)NC(=O)/C=C/c1ccco1,inactive
13,COCCNC(=O)c1ccc2c3n(nc2c1)-c1ccc(Cl)cc1CO3,"inconclusive: 3.98 µM [quencher, side channel, full curve]"
14,CN1C=CC=C/C1=C(\C#N)c1nc2ccccc2[nH]1,"inconclusive: 14.1 µM [quencher, side channel, partial curve]"
15,CCN1/C(=C2\SC(=S)N(Cc3ccccc3)C2=O)Sc2ccccc21,inactive
16,Cc1ccc(-c2c(C(=O)N/N=C/c3ccco3)nnn2-c2nonc2N)cc1,"inconclusive: 22.4 µM [quencher, side channel, partial curve]"
17,CS(=O)(=O)N1CCN(c2ccc([N+](=O)[O-])cc2C(F)(F)F)CC1,"inconclusive: 12.6 µM [quencher, side channel, partial curve]"
18,CCS(=O)(=O)c1ccc2oc(Nc3cc(C)cc(C)c3)nc2c1,inactive
19,CC(=O)COc1ccc2c(c1C)O/C(=C\c1ccco1)C2=O,"inconclusive: 10 µM [quencher, side channel, partial curve]"
20,CCN(CC)CC(=O)Nc1ccc([N+](=O)[O-])cc1,"inconclusive: 25.1 µM [quencher, side channel, partial curve]"

row,SMILES,Potency
1,O=C1c2cccc3cccc(c23)C(=O)N1CCCc1n[nH]c(=S)n1-c1ccccc1,"inconclusive: 3.16 µM [quencher, full curve, poor fit]"
2,Nc1cc(N2CCOCC2)c(Cl)cc1[N+](=O)[O-],"inconclusive: 11.2 µM [quencher, side channel, partial curve]"
3,O=c1[nH]ncc2c3ccccc3n(Cc3ccc(F)cc3)c12,inactive
4,COC(=O)c1c(NC(=O)C(C)C)sc2c1C(C(=O)OC)CC2 (centres undefined),inactive
5,COc1ccc(OC)c(CCNC(=O)c2nn(C)c3c2CS(=O)(=O)c2ccccc2-3)c1,inactive
6,Cc1cc(-c2n[nH]c(=S)n2/N=C/c2ccc(Cl)c([N+](=O)[O-])c2)n[nH]1,"inconclusive: 7.94 µM [quencher, side channel, full curve]"
7,CC(=O)c1sc(N/N=C2\CC3CCC2(C)C3(C)C)nc1C (centres undefined),"inconclusive: 44.7 µM [quencher, side channel, partial curve, poor fit]"
8,O=C(Cc1cccs1)N/N=C/C=C\c1ccccc1[N+](=O)[O-],"inconclusive: 12.6 µM [quencher, side channel, partial curve]"
9,O=C1c2ccccc2-c2onc3ccc(Oc4ccccc4)c1c23,"inconclusive: 39.8 µM [quencher, single point]"
10,CN(C)c1ccc(/C=C/c2nc3ccccc3c(=O)n2-c2ccc(C(=O)O)cc2)cc1,"inconclusive: 28.2 µM [quencher, side channel, single point]"
11,O=C(CNc1cccc(Cl)c1)NNC(=S)NCc1ccccc1,inactive
12,O=C(Nc1ccccc1Cl)c1ccc2nsnc2c1,"inconclusive: 3.16 µM [quencher, side channel, full curve]"
13,O=C(NCc1ccccc1)C(=O)NCC1COc2ccccc2O1 (centres undefined),"inconclusive: 8.91 µM [quencher, side channel, single point]"
14,N=C1SCC(=O)N1c1ncc(Cc2cccc(Cl)c2)s1,inactive
15,O=C(O)c1ccccc1NS(=O)(=O)c1ccc(NNC(=S)Nc2ccc(OC(F)F)cc2)c([N+](=O)[O-])c1,"inconclusive: 25.1 µM [quencher, side channel, single point]"
16,CN1CCN(S(=O)(=O)c2ccc(NC(=O)Cc3ccc([N+](=O)[O-])cc3)cc2)CC1,"inconclusive: 22.4 µM [quencher, side channel, partial curve]"
17,O=C(NCc1cccnc1)c1ccc(-c2cc3ccccc3oc2=O)cc1,"inconclusive: 3.98 µM [quencher, side channel, full curve]"
18,Cc1cccc(-n2nc(C)c3c2NC2=C(C(=O)CCC2)C3c2ccccn2)c1 (centres undefined),inactive
19,Cc1ccsc1C(=O)Nc1ccc(O)c(-c2nc3ccccc3s2)c1,"inconclusive: 10 µM [fluorescent, partial curve]"
